Measured values reported in PubChem BioAssay (NCI).
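Growth conditions: 96-well plates. Treatment: test compound, 48 hours, 5 concentrations. Analysis: linear interpolation between bracketing concentrations; unreached endpoints set to highest concentration. GI50 marks 50% less growth.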 Certain results were filed several times, with different values. This list holds those alone. The source may hold further records. For part of these data: A record mostly stands for its own series of concentrations, which the source does not state; some values may only mark the edge of a range.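 Definition used: TGI = concentration required for complete inhibition of growth.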 For part of these data: The records of an entry repeat one measurement (runs, samples, wells, individuals or studies). Marks in square brackets tell the records apart. The letters are not those of the source and start again with each entry.

Columns and labels:
Test in all cases: NCI-60 cell line screen, 48 h
SR leukemia = test system: SR leukemia
HS 578T breast = test system: HS 578T breast
SF-295 CNS = test system: SF-295 CNS
HL-60(TB) leukemia = test system: HL-60(TB) leukemia
TK-10 renal = test system: TK-10 renal
COLO 205 colon = test system: COLO 205 colon
HCC-2998 colon = test system: HCC-2998 colon
EKVX NSCLC = test system: EKVX NSCLC
BT-549 breast = test system: BT-549 breast
IGROV1 ovarian = test system: IGROV1 ovarian
ACHN renal = test system: ACHN renal
T-47D breast = test system: T-47D breast
LOX IMVI melanoma = test system: LOX IMVI melanoma
SF-268 CNS = test system: SF-268 CNS
OVCAR-3 ovarian = test system: OVCAR-3 ovarian

SMILES | TGI (SR leukemia) | TGI (HS 578T breast) | TGI (SF-295 CNS) | TGI (HL-60(TB) leukemia) | TGI (TK-10 renal) | TGI (COLO 205 colon) | TGI (HCC-2998 colon) | GI50 (EKVX NSCLC) | TGI (EKVX NSCLC) | GI50 (BT-549 breast) | GI50 (IGROV1 ovarian) | TGI (ACHN renal) | TGI (T-47D breast) | TGI (LOX IMVI melanoma) | TGI (SF-268 CNS) | GI50 (OVCAR-3 ovarian) | TGI (OVCAR-3 ovarian)
NC(=O)Nc1cc(-c2cccc(F)c2)sc1C(=O)N[C@H]1CCCNC1 | > 8.36 µM [sample A, mean of 2 tests] and 528 nM [sample B, mean of 3 tests] | 661 nM [sample A, mean of 2 tests] and 6.66 µM [sample B, mean of 4 tests] | – | – | – | – | – | – | – | – | – | – | – | – | – | – | –
COc1ccc2nc3cccc([N+](=O)[O-])c3c(NCCCO)c2c1 | – | 21.9 nM and 233 nM | 46.6 nM and 1.07 µM | 20 nM and 30.1 µM | 7.75 nM and 127 nM | 2.01 nM and 29.5 nM | 5.94 nM and 103 nM | 1.67 nM and 89.8 nM | 6.87 nM and 541 nM | 2.42 nM and 25.8 nM | 3.68 nM and 41.2 nM | 1.19 nM and 55.2 nM | 244 nM and 30.3 µM | 23.2 nM and 300 nM | 5.34 nM and 178 nM | 1.35 nM and 45.6 nM | 6.19 nM and 19.1 µM
